Results: PubChem BioAssay AID2451 (National Center for Advancing Translational Sciences (NCATS), 2010)
Among all 290,000 compounds or so, about 2,100 (0.72%) were called active. Inconclusive means that the source gave no clear call. Such entries were picked first, then a sample of the others. Calls come from the whole dose curve; as a rule, active = well fitted inhibition curve with a large enough effect; inconclusive = small, poorly fitted or top-dose-only effect, or effect the other way; inactive = flat fitted curve, though single readings scatter. Potencies of inconclusive entries are doubtful fits and often do not repeat.

Biological target: Fructose-bisphosphate aldolase (Giardia intestinalis (strain ATCC 50803 / WB clone C6)) (UniProt A8B2U2)
UniProt A8B2U2, sequence (A8B2U2 whole entry, looked up): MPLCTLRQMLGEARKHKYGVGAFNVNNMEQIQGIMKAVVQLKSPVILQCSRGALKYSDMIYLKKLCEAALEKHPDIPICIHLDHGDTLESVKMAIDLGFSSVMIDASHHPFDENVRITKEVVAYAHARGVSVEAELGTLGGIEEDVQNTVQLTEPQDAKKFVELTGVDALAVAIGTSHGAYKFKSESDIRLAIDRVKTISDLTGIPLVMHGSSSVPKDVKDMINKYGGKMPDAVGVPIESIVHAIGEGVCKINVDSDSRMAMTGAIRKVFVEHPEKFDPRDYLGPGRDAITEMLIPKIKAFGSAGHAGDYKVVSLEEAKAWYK
Assay: qHTS Assay for Inhibitors of Fructose-1,6-bisphosphate Aldolase from Giardia Lamblia; note: nearly all actives have a fitted effect of over 55% in size
Conditions: purified Giardia FBPA; activity, negative = inhibition: at 59.6 µM (top of the series) unless noted
In short: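 Giardia FBPA (40 nM reagent) was preincubated 10 min at RT with compound (up to 57.5 uM final), then substrate plus GAPDH/TPI/NAD/arsenate coupling system with diaphorase/resazurin was added; resorufin fluorescence (525/598 nm) was read after 20 min.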
% is set by controls: 0 for no effect and ±100 for the full control effect; potency is the fitted concentration of half-maximal effect; tags give direction and shape of the fitted curve.

Row | Compound | Potency | activity, negative = inhibition
1 | Cc1ccc(-n2ncc(C(=O)N3CCc4ccccc4C3)c2NC(=O)c2ccco2)cc1C | inconclusive: 28.1 µM [inhibitor, single point] | 
2 | N#Cc1c(SCC(=O)Nc2nccs2)sc2c(O)cc(=O)[nH]c12 | inconclusive: 15.8 µM [inhibitor, partial curve] | 
3 | CC(=O)c1ccc(NC(=O)CCc2nnc3ccc(NCc4ccco4)nn23)cc1 |  | inactive: 14.7%
4 | O=C(Nc1ccc(Cl)cn1)c1ccccc1F |  | inactive: 2.48%
5 | CNC(=O)c1c(NC(=O)c2ccc(S(=O)(=O)N3CCCC3)cc2)sc2c1CCN(C(C)C)C2 | inconclusive: 39.8 µM [inhibitor, single point] | 
6 | COc1ccc(-c2cc(OC)c3c(C)oc(C)c3c(=O)c2)cc1OC | inconclusive: 11.2 µM [inhibitor, partial curve, poor fit] | 
7 | CCN(CC)CCCNCC(=O)Nc1cc(C)on1 | inconclusive: 17.7 µM [inhibitor, partial curve] | 
8 | Cc1nc(NC(=O)c2ccccc2O)sc1C |  | inactive: -19.7%
9 | S=c1[nH]nc(-c2ccn[nH]2)n1-c1ccccc1Cl | active: 19.9 µM | 
10 | CC(C)C[C@H](NC(=O)OC(C)(C)C)c1n[nH]c(=S)n1N | inconclusive: 19.9 µM [inhibitor, partial curve] | 
11 | CCOC(=O)c1c(C)[nH]c(C)c1C(=O)COC(=O)c1ccccc1O |  | inactive: -10.8%
12 | COc1cc(OC)c(OC)cc1CN1CCN(c2ccc(F)cc2)CC1 | inconclusive: 15.8 µM [inhibitor, partial curve] | 
13 | CCCCC(=O)Nc1ccc(NC(=O)C(C)C)cn1 |  | inactive: -1.26%
14 | COc1ccc(/C=C2\SC(=S)N(CC(=O)OCC(=O)Nc3cc(Cl)cc(Cl)c3)C2=O)cc1 | inconclusive: 19.9 µM [inhibitor, single point] | 
15 | CCN(CC)S(=O)(=O)c1ccc(O)c(C(=O)OCC(=O)N2c3ccccc3CC2C)c1 (centres undefined) |  | inactive: 1.83%
16 | Cc1ccc(NC(=O)Cn2c(O)c(N=NS(=O)(=O)c3ccc(C)cc3)c3ccccc32)cc1 | inconclusive: 31.5 µM [activator, single point] | 
17 | O=[N+]([O-])/C(N=Nc1ccccc1)=N\Nc1ccccc1 | inconclusive: 15.8 µM [inhibitor, single point] | 
18 | O=C(c1ccc(-c2ccccc2)c(F)c1)C1CCCN(C(=O)c2cncs2)C1 (centres undefined) |  | inactive: -2.99%
19 | CN1CCc2cc3c(cc2C(=O)Cc2ccc4c(c2C1)OCO4)OCO3 | inconclusive: 7.06 µM [inhibitor, full curve] | 
20 | CC(C)C(=O)NC(c1cccc([N+](=O)[O-])c1)c1ccc2cccnc2c1O (centres undefined) | inconclusive: 28.2 µM [activator, partial curve] | 
21 | O=C(/C=C/c1ccco1)N1CCN(S(=O)(=O)c2cccs2)CC1 |  | inactive: -1.33%
22 | O=C1ON=C(c2ccccc2)/C1=C\c1ccco1 | inconclusive: 15.8 µM [inhibitor, single point] | 
23 | Cc1cc(N2CCCCCC2)nc2ccccc12 | inconclusive: 15.8 µM [inhibitor, partial curve] | 
24 | Cc1cccc(Sc2ccc([N+](=O)[O-])cc2[N+](=O)[O-])n1 | inconclusive: 22.3 µM [inhibitor, partial curve] | 
25 | NC(=O)COc1cccc2cccnc12 |  | inactive: -1.49%

Row | Compound | Potency | activity, negative = inhibition
26 | O=C1/C(=C/c2ccc([N+](=O)[O-])cc2)CCC1C1CCCC1 (centres undefined) |  | inactive: 7.88%
27 | CS(=O)(=O)Cc1nc2ccccc2oc1=O | inconclusive: 22.4 µM [inhibitor, single point] | 
28 | CCc1ccc(-n2c(C)n[nH]c2=S)cc1 | inconclusive: 17.7 µM [inhibitor, single point] | 
29 | COc1ccc(CCNC(=O)c2sc(=S)n(C)c2N)cc1 |  | inactive: 0.908%
30 | CC(=O)c1c(N2CCN(Cc3ccccc3)CC2)[nH]c(-c2ccccc2)nc1=S | inconclusive: 19.9 µM [activator, single point] | 
31 | O=C(CSc1n[nH]c(-c2ccccc2Br)n1)NCCN1C(=O)CSC1=O | inconclusive: 17.7 µM [inhibitor, single point] | 
32 | Cc1cccc(C(=O)NC(=S)Nc2ccc(S(=O)(=O)N3CCN(C)CC3)cc2)c1 | inconclusive: 14.1 µM [inhibitor, partial curve] | 
33 | CNC(=O)NC(=S)NC(=O)c1ccc(OC)cc1 | inconclusive: 14.1 µM [inhibitor, partial curve] | 
34 | COc1ccc(C(=O)CN2CCN(c3ccc(Cl)cc3)CC2)cc1OC | inconclusive: 7.08 µM [activator, single point] | 
35 | Cc1nnc(N/N=C/c2ccc(Br)cc2)n1N | inconclusive: 15.8 µM [inhibitor, partial curve] | 
36 | Cc1nn(Cc2ccccc2)c2c1C(c1ccco1)C(C#N)=C(N)O2 (centres undefined) | inconclusive: 17.7 µM [inhibitor, single point] | 
37 | CC(C)OCCCn1c(=S)[nH]c2ncccc2c1=O |  | inactive: -8.23%
38 | CS(=O)(=O)N(CCc1ccccc1)CC(=O)N1CCN(Cc2ccc3c(c2)OCO3)CC1 |  | inactive: 26.4%
39 | Cc1ccccc1NC(=S)Nc1ccccn1 |  | inactive: -28.6%
40 | CC1=CC(=NOC(=O)c2cccc([N+](=O)[O-])c2)C=C(C)C1=O | inconclusive: 17.7 µM [inhibitor, partial curve] | 
41 | COc1ccccc1NC(=O)CN1CCN(CC(=O)Nc2ccc3c(c2)OCO3)CC1 |  | inactive: 4.09%
42 | O=C(Nc1cc(=O)[nH]c2ncnn12)c1ccccc1Cl | inconclusive: 6.29 µM [inhibitor, full curve] | 
43 | CCN1C(=O)N(CC)c2cccc3cccc1c23 |  | inactive: -17.6%
44 | C=CCNC(=O)c1cc(-c2cccnc2)nc2ccccc12 |  | inactive: 0.568%
45 | CCOC(=O)/C(=N\Nc1ncnc2ccccc12)c1ccc(OC)cc1 |  | inactive: -8.85%
46 | Cc1ccc(C(=S)N2CCN(Cc3ccccc3)CC2)cc1 | active: 15.8 µM | 
47 | Cc1cc(-c2ccc(N3CCOCC3)cc2)nc2ccccc12 |  | inactive: -5.11%
48 | COC(=O)C1=C[C@@H](C(=O)OC)C2C3=C(C(=O)[C@]2(CC(C)C)NC(=O)c2ccccc2)[C@H](C)n2c(=O)n(C)c(=O)n2[C@@H]3C1 (some centres undefined) |  | inactive: 1.19%
49 | S=c1[nH]nc(-c2ccccc2)o1 | inconclusive: 7.06 µM [inhibitor, single point] | 
